# Source: the supplement of paper PMC8728848
# This is one part of the list.
# B1: SSP1 (Sclerotinia sclerotiorum), XP_001584968 (protein)
# chain: MGSSHHHHHHSSGLVPRGSHMSLLTTELACTSAPDQVLHLFFQDGQNILEARSPDGGNVWTTQDTIIAKDGDYNGSSMTCYYVDKDANFDNQPSIHLLYMNKDKQLTEKVKRMKGDNPIWEDAKVPDEVRKGPEQYSKLTSGSFNQGTGWNPNGSQWAYFSASKDGKMGIVEIRRTPKDPWHTETILEEKWGDELPGTALACVIGNGKIRVFLQHHDYSIILYENQNNTWHDRGTFIPKDKVQATTPLACTMTKDGSVHLFYVSKSNKIIHCTDGKKEEELINFFPGSKLGATSVENKITLFFRNLNPVNEVGTLENENGSWKHGTTVIPA
# Legend:
# Experiment in all cases: glycan array binding signal (z-score within array); higher = stronger binding
# Details in all cases: glycan notation: IUPAC condensed, linker removed
# [1] = target: Neu5Ac(a2-3)Gal(b1-4)GlcNAc(b1-3)[Neu5Ac(a2-3)Gal(b1-4)GlcNAc(b1-6)]GalNAc
# Summary of the method: (§1)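 Glycan array data were curated from 3228 arrays in the Consortium for Functional Glycomics database and kept only where the protein sequence was available. Glycan names were converted to IUPAC-condensed notation, and columns mapping to the same glycan were averaged. The binding signal is a within-array Z-score, averaged across arrays of the same protein sequence at different concentrations or buffers and across linkers. Negative Z-scores can be read as non-binding.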
# [2] = target: Neu5Ac(a2-3)Gal(b1-4)GlcNAc(b1-6)GalNAc
# Summary of the method: as §1
# [3] = target: Neu5Ac(a2-3)Gal(b1-4)GlcNAc(b1-6)[Gal(b1-3)]GalNAc
# Summary of the method: as §1
# [4] = target: Neu5Ac(a2-3)Gal(b1-4)GlcNAc(b1-6)[Neu5Ac(a2-3)Gal(b1-3)]GalNAc
# Summary of the method: as §1
# [5] = target: Neu5Ac(a2-3)Gal(b1-4)GlcNAc6S
# Summary of the method: as §1
# [6] = target: Neu5Ac(a2-3)Gal(b1-4)[Fuc(a1-3)]GlcNAc
# Summary of the method: as §1
# [7] = target: Neu5Ac(a2-3)Gal(b1-4)[Fuc(a1-3)]GlcNAc(b1-2)Man
# Summary of the method: as §1
# [8] = target: Neu5Ac(a2-3)Gal(b1-4)[Fuc(a1-3)]GlcNAc(b1-3)Gal
# Summary of the method: as §1
# [9] = target: Neu5Ac(a2-3)Gal(b1-4)[Fuc(a1-3)]GlcNAc(b1-3)Gal(b1-4)GlcNAc
# Summary of the method: as §1
# [10] = target: Neu5Ac(a2-3)Gal(b1-4)[Fuc(a1-3)]GlcNAc(b1-3)Gal(b1-4)[Fuc(a1-3)]GlcNAc(b1-3)Gal(b1-4)[Fuc(a1-3)]GlcNAc
# Summary of the method: as §1
# [11] = target: Neu5Ac(a2-3)Gal(b1-4)[Fuc(a1-3)]GlcNAc(b1-3)GalNAc
# Summary of the method: as §1
# [12] = target: Neu5Ac(a2-3)Gal(b1-4)[Fuc(a1-3)]GlcNAc(b1-6)[Gal(b1-3)]GalNAc
# Summary of the method: as §1
# [13] = target: Neu5Ac(a2-3)Gal(b1-4)[Fuc(a1-3)]GlcNAc(b1-6)[Neu5Ac(a2-3)Gal(b1-3)]GalNAc
# Summary of the method: as §1
# [14] = target: Neu5Ac(a2-3)Gal(b1-4)[Fuc(a1-3)]GlcNAc6S
# Summary of the method: as §1
# [15] = target: Neu5Ac(a2-3)Gal6S(b1-4)GlcNAc
# Summary of the method: as §1
# [16] = target: Neu5Ac(a2-3)Gal6S(b1-4)[Fuc(a1-3)]GlcNAc
# Summary of the method: as §1
# Neu5Ac(a2-3)GalNAc = target: Neu5Ac(a2-3)GalNAc
# Summary of the method: as §1
# [17] = target: Neu5Ac(a2-3)GalNAc(b1-4)GlcNAc
# Summary of the method: as §1
# [18] = target: Neu5Ac(a2-3)[GalNAc(b1-4)]Gal(b1-4)Glc
# Summary of the method: as §1
# [19] = target: Neu5Ac(a2-3)[GalNAc(b1-4)]Gal(b1-4)GlcNAc
# Summary of the method: as §1
# [20] = target: Neu5Ac(a2-3)[GalNAc(b1-4)]Gal(b1-4)GlcNAc(b1-3)GalNAc
# Summary of the method: as §1
# [21] = target: Neu5Ac(a2-3)[Neu5Ac(a2-6)]GalNAc
# Summary of the method: as §1
# Neu5Ac(a2-6)Gal = target: Neu5Ac(a2-6)Gal
# Summary of the method: as §1
# [22] = target: Neu5Ac(a2-6)Gal(b1-3)GlcNAc(b1-3)[Gal(b1-4)GlcNAc(b1-6)]Gal(b1-4)Glc
# Summary of the method: as §1
# Neu5Ac(a2-6)Gal(b1-4)Glc = target: Neu5Ac(a2-6)Gal(b1-4)Glc
# Summary of the method: as §1
# [23] = target: Neu5Ac(a2-6)Gal(b1-4)GlcNAc
# Summary of the method: as §1
# [24] = target: Neu5Ac(a2-6)Gal(b1-4)GlcNAc(b1-2)Man
# Summary of the method: as §1
# [25] = target: Neu5Ac(a2-6)Gal(b1-4)GlcNAc(b1-2)Man(a1-3)Man(b1-4)GlcNAc(b1-4)GlcNAc
# Summary of the method: as §1
# [26] = target: Neu5Ac(a2-6)Gal(b1-4)GlcNAc(b1-2)Man(a1-3)[Gal(b1-4)GlcNAc(b1-2)Man(a1-6)]Man(b1-4)GlcNAc(b1-4)GlcNAc
# Summary of the method: as §1
# [27] = target: Neu5Ac(a2-6)Gal(b1-4)GlcNAc(b1-2)Man(a1-3)[GlcNAc(b1-2)Man(a1-6)]Man(b1-4)GlcNAc(b1-4)GlcNAc
# Summary of the method: as §1
# [28] = target: Neu5Ac(a2-6)Gal(b1-4)GlcNAc(b1-2)Man(a1-3)[GlcNAc(b1-4)][Neu5Ac(a2-6)Gal(b1-4)GlcNAc(b1-2)Man(a1-6)]Man(b1-4)GlcNAc(b1-4)GlcNAc
# Summary of the method: as §1
# [29] = target: Neu5Ac(a2-6)Gal(b1-4)GlcNAc(b1-2)Man(a1-3)[Man(a1-6)]Man(b1-4)GlcNAc(b1-4)GlcNAc
# Summary of the method: as §1
# [30] = target: Neu5Ac(a2-6)Gal(b1-4)GlcNAc(b1-2)Man(a1-3)[Neu5Ac(a2-3)Gal(b1-4)GlcNAc(b1-2)Man(a1-6)]Man(b1-4)GlcNAc(b1-4)GlcNAc
# Summary of the method: as §1
# [31] = target: Neu5Ac(a2-6)Gal(b1-4)GlcNAc(b1-2)Man(a1-3)[Neu5Ac(a2-6)Gal(b1-4)GlcNAc(b1-2)Man(a1-6)]Man(b1-4)GlcNAc(b1-4)GlcNAc
# Summary of the method: as §1
# [32] = target: Neu5Ac(a2-6)Gal(b1-4)GlcNAc(b1-2)Man(a1-3)[Neu5Ac(a2-6)Gal(b1-4)GlcNAc(b1-2)Man(a1-6)]Man(b1-4)GlcNAc(b1-4)[Fuc(a1-6)]GlcNAc
# Summary of the method: as §1
# [33] = target: Neu5Ac(a2-6)Gal(b1-4)GlcNAc(b1-2)Man(a1-6)Man(b1-4)GlcNAc(b1-4)GlcNAc
# Summary of the method: as §1
# [34] = target: Neu5Ac(a2-6)Gal(b1-4)GlcNAc(b1-2)Man(a1-6)[Gal(b1-4)GlcNAc(b1-2)Man(a1-3)]Man(b1-4)GlcNAc(b1-4)GlcNAc
# Summary of the method: as §1
# [35] = target: Neu5Ac(a2-6)Gal(b1-4)GlcNAc(b1-2)Man(a1-6)[GlcNAc(b1-2)Man(a1-3)]Man(b1-4)GlcNAc(b1-4)GlcNAc
# Summary of the method: as §1
# [36] = target: Neu5Ac(a2-6)Gal(b1-4)GlcNAc(b1-2)Man(a1-6)[Man(a1-3)]Man(b1-4)GlcNAc(b1-4)GlcNAc
# Summary of the method: as §1
# [37] = target: Neu5Ac(a2-6)Gal(b1-4)GlcNAc(b1-2)[Neu5Ac(a2-6)Gal(b1-4)GlcNAc(b1-4)]Man(a1-3)[GlcNAc(b1-4)][Neu5Ac(a2-6)Gal(b1-4)GlcNAc(b1-2)[Neu5Ac(a2-6)Gal(b1-4)GlcNAc(b1-6)]Man(a1-6)]Man(b1-4)GlcNAc(b1-4)GlcNAc
# Summary of the method: as §1
# [38] = target: Neu5Ac(a2-6)Gal(b1-4)GlcNAc(b1-2)[Neu5Ac(a2-6)Gal(b1-4)GlcNAc(b1-4)]Man(a1-3)[GlcNAc(b1-4)][Neu5Ac(a2-6)Gal(b1-4)GlcNAc(b1-4)Man(a1-6)]Man(b1-4)GlcNAc(b1-4)GlcNAc
# Summary of the method: as §1
# [39] = target: Neu5Ac(a2-6)Gal(b1-4)GlcNAc(b1-2)[Neu5Ac(a2-6)Gal(b1-4)GlcNAc(b1-6)]Man(a1-6)[Neu5Ac(a2-6)Gal(b1-4)GlcNAc(b1-2)Man(a1-3)][GlcNAc(b1-4)]Man(b1-4)GlcNAc(b1-4)GlcNAc
# Summary of the method: as §1
# [40] = target: Neu5Ac(a2-6)Gal(b1-4)GlcNAc(b1-3)Gal(b1-3)GlcNAc
# Summary of the method: as §1
# [41] = target: Neu5Ac(a2-6)Gal(b1-4)GlcNAc(b1-3)Gal(b1-4)GlcNAc
# Summary of the method: as §1
# [42] = target: Neu5Ac(a2-6)Gal(b1-4)GlcNAc(b1-3)Gal(b1-4)GlcNAc(b1-2)Man(a1-3)[Neu5Ac(a2-6)Gal(b1-4)GlcNAc(b1-3)Gal(b1-4)GlcNAc(b1-2)Man(a1-6)]GalNAc
# Summary of the method: as §1
# [43] = target: Neu5Ac(a2-6)Gal(b1-4)GlcNAc(b1-3)Gal(b1-4)GlcNAc(b1-3)Gal(b1-4)GlcNAc
# Summary of the method: as §1
binder,measurement,setting,value
B1,glycan array binding signal (z-score),[1],-0.365
same,glycan array binding signal (z-score),[2],-0.085
same,glycan array binding signal (z-score),[3],-0.687
same,glycan array binding signal (z-score),[4],-0.364
same,glycan array binding signal (z-score),[5],-0.503
same,glycan array binding signal (z-score),[6],-0.139
same,glycan array binding signal (z-score),[7],-0.489
same,glycan array binding signal (z-score),[8],-0.877
same,glycan array binding signal (z-score),[9],0.211
same,glycan array binding signal (z-score),[10],-0.118
same,glycan array binding signal (z-score),[11],0.244
same,glycan array binding signal (z-score),[12],0
same,glycan array binding signal (z-score),[13],1.79
same,glycan array binding signal (z-score),[14],-0.166
same,glycan array binding signal (z-score),[15],-0.085
same,glycan array binding signal (z-score),[16],-0.365
same,glycan array binding signal (z-score),Neu5Ac(a2-3)GalNAc,-0.556
same,glycan array binding signal (z-score),[17],0.205
same,glycan array binding signal (z-score),[18],0.286
same,glycan array binding signal (z-score),[19],-0.354
same,glycan array binding signal (z-score),[20],0.386
same,glycan array binding signal (z-score),[21],0.042
same,glycan array binding signal (z-score),Neu5Ac(a2-6)Gal,0.232
same,glycan array binding signal (z-score),[22],-0.303
same,glycan array binding signal (z-score),Neu5Ac(a2-6)Gal(b1-4)Glc,-0.168
same,glycan array binding signal (z-score),[23],0.618
same,glycan array binding signal (z-score),[24],-0.172
same,glycan array binding signal (z-score),[25],-0.09
same,glycan array binding signal (z-score),[26],0.559
same,glycan array binding signal (z-score),[27],-0.35
same,glycan array binding signal (z-score),[28],-0.21
same,glycan array binding signal (z-score),[29],-0.15
same,glycan array binding signal (z-score),[30],-0.627
same,glycan array binding signal (z-score),[31],-0.043
same,glycan array binding signal (z-score),[32],-0.364
same,glycan array binding signal (z-score),[33],0.013
same,glycan array binding signal (z-score),[34],-0.632
same,glycan array binding signal (z-score),[35],-0.182
same,glycan array binding signal (z-score),[36],-0.095
same,glycan array binding signal (z-score),[37],0.132
same,glycan array binding signal (z-score),[38],-0.055
same,glycan array binding signal (z-score),[39],-0.141
same,glycan array binding signal (z-score),[40],-0.299
same,glycan array binding signal (z-score),[41],-0.052
same,glycan array binding signal (z-score),[42],0.252
same,glycan array binding signal (z-score),[43],-0.007
